Results: the supplement of paper PMC4996465

Assays:
[1] = tested on: KB3-1; test: viability (% of DMSO control); higher = more viable cells
Protocol: (§1)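 Eleven-dose screen of the NCATS MIPE 3 library on cells without co-treatment; CellTiter-Glo after 48 h, as % of DMSO wells.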

[2] = tested on: KB3-1; test: log AC50 of viability decrease (48 h) (log10 M); higher = less potent
Protocol: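 Eleven-dose screen of the NCATS MIPE 3 library on cells without co-treatment; CellTiter-Glo after 48 h. AC50 from the curve fit; only inhibitory curves of the better fit classes are listed.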

[3] = tested on: Nalm-6; test: viability (% of DMSO control); higher = more viable cells
Protocol: as §1

SMILES	viability ([1]; 0.00078 µM)	viability ([1]; 0.00234 µM)	viability ([1]; 0.00702 µM)	viability ([1]; 0.0211 µM)	viability ([1]; 0.0632 µM)	viability ([1]; 0.19 µM)	viability ([1]; 0.569 µM)	viability ([1]; 1.71 µM)	viability ([1]; 5.12 µM)	viability ([1]; 15.4 µM)	viability ([1]; 46.1 µM)	log AC50 of viability decrease [2]	viability ([3]; run: 1, 0.00078 µM) [%]	viability ([3]; run: 1, 0.00234 µM) [%]	viability ([3]; run: 1, 0.00702 µM) [%]	viability ([3]; run: 1, 0.0211 µM) [%]	viability ([3]; run: 1, 0.0632 µM) [%]	viability ([3]; run: 1, 0.19 µM) [%]	viability ([3]; run: 1, 0.569 µM) [%]	viability ([3]; run: 1, 1.71 µM) [%]	further results
O=C(NCCCNc1nc(Nc2cccc(NC(=O)N3CCCC3)c2)ncc1I)c1cccs1 [BX-795]	102% and 99.5%	103% and 97%	99.4% and 96.5%	102% and 94.5%	100% and 103%	98.1% and 94.2%	80.3% and 69.4%	83% and 77.6%	80.2% and 78.3%	63.1% and 72.4%	2.86% and 3.79%	-4.68 and -4.63									
Cc1ccc(-c2cc(C(F)(F)F)nn2-c2ccc([S+](N)(=O)[O-])cc2)cc1 [Celecoxib]												-4.42									viability ([1]; 0.00156 µM): 100%; viability ([1]; 0.00468 µM): 104%; viability ([1]; 0.014 µM): 101%; viability ([1]; 0.0421 µM): 107%; viability ([1]; 0.126 µM): 101%; viability ([1]; 0.379 µM): 103%; viability ([1]; 1.14 µM): 107%; viability ([1]; 3.41 µM): 115%; viability ([1]; 10.2 µM): 112%; viability ([1]; 30.7 µM): 81.9%; viability ([1]; 92.2 µM): 20%
COc1ccc(/C=C\c2cc(OC)c(OC)c(OC)c2)cc1O [Combretastatin A-4]	49.4%	31.9%	24.5%	25%	24.3%	24.9%	22.8%	22.5%	24.5%	25%	19.6%	-8.73	23.8	19.7	14.9	15.7	19.5	20.3	16.7	14.3	viability ([3]; run: 1, 5.12 µM): 12.5%; viability ([3]; run: 1, 15.4 µM): 6.43%; viability ([3]; run: 1, 46.1 µM): 1.79%; viability ([3]; run: 2, 0.00078 µM): 18.6%; viability ([3]; run: 2, 0.00234 µM): 11%; viability ([3]; run: 2, 0.00702 µM): 9.48%; viability ([3]; run: 2, 0.0211 µM): 11.7%; viability ([3]; run: 2, 0.0632 µM): 14%; viability ([3]; run: 2, 0.19 µM): 11.6%; viability ([3]; run: 2, 0.569 µM): 12.1%; viability ([3]; run: 2, 1.71 µM): 10.3%; viability ([3]; run: 2, 5.12 µM): 9.04%; viability ([3]; run: 2, 15.4 µM): 4.39%; viability ([3]; run: 2, 46.1 µM): 1.65%
COC1=CC2=C(C=C1OC)[C@H]3[C@@H](CO2)OC4=C(C=CC5=C4\C=C/C(C)(C)O5)C3=O [Deguelin]	99.1%	99%	94%	90.9%	81.2%	79.3%	75.1%	73.4%	71.3%	67.1%	39.2%	-5.38	47.2	92.1	93.1	91	73.7	62.8	62.5	66.7	viability ([3]; run: 1, 5.12 µM): 69.7%; viability ([3]; run: 1, 15.4 µM): 61.8%; viability ([3]; run: 1, 46.1 µM): 13.1%; viability ([3]; run: 2, 0.00078 µM): 96.4%; viability ([3]; run: 2, 0.00234 µM): 106%; viability ([3]; run: 2, 0.00702 µM): 98.6%; viability ([3]; run: 2, 0.0211 µM): 97.6%; viability ([3]; run: 2, 0.0632 µM): 86.4%; viability ([3]; run: 2, 0.19 µM): 77.2%; viability ([3]; run: 2, 0.569 µM): 69.1%; viability ([3]; run: 2, 1.71 µM): 70.2%; viability ([3]; run: 2, 5.12 µM): 77.3%; viability ([3]; run: 2, 15.4 µM): 70.7%; viability ([3]; run: 2, 46.1 µM): 7.39%
CC1=C(C)C2=C(S1)[N]3C(=NN=C3[C@H](CC(=O)OC(C)(C)C)/N=C2/C4=CC=C(Cl)C=C4)C [JQ1]	100%	103%	97%	97.5%	92.8%	84.9%	69.5%	61.9%	56.8%	53%	8.68%	-4.98									
COc1ccc(-c2c(-c3ccc(O)cc3O)n[nH]c2C)cc1 [PDHK RIKEN]	99.1%	105%	106%	98.6%	104%	102%	99.2%	101%	90.7%	84%	66.3%	-4.78	72.3	95.7	99.5	106	106	108	104	100	viability ([3]; run: 1, 5.12 µM): 92.2%; viability ([3]; run: 1, 15.4 µM): 82.4%; viability ([3]; run: 1, 46.1 µM): 53.3%; viability ([3]; run: 2, 0.00078 µM): 93.2%; viability ([3]; run: 2, 0.00234 µM): 99.7%; viability ([3]; run: 2, 0.00702 µM): 100%; viability ([3]; run: 2, 0.0211 µM): 101%; viability ([3]; run: 2, 0.0632 µM): 106%; viability ([3]; run: 2, 0.19 µM): 104%; viability ([3]; run: 2, 0.569 µM): 105%; viability ([3]; run: 2, 1.71 µM): 97.1%; viability ([3]; run: 2, 5.12 µM): 92.8%; viability ([3]; run: 2, 15.4 µM): 93.9%; viability ([3]; run: 2, 46.1 µM): 45%
Oc1cccc(-c2nc(N3CCOCC3)c3oc4ncccc4c3n2)c1 [PI-103]	103%	106%	100%	95%	78.8%	57.3%	47.6%	34.6%	41%	39.3%	36.5%	-7.03									
Cc1[nH]c2ccccc2c1CCNCc1ccc(/C=C/C(=O)NO)cc1 [Panobinostat]	108%	102%	86.7%	71.6%	42.8%	21.9%	15.8%	14.9%	15.6%	14.9%	11.7%	-7.53									

“And” between values parts separate entries of the source, which are not always exact repeats. Identical values can stand only once. Viability of KB3-1 and Nalm-6 cells after 48 h of drug alone (CellTiter-Glo), 11 doses over about 4.5 log units. % of DMSO wells, lower = more cell loss; AC50 from the fitted curve, lower = more potent. No active / inactive call. Nalm-6 was screened in two runs. AC50 is listed only for well-fitted inhibitory curves. KB3-1 is a HeLa-derived carcinoma line, Nalm-6 a B-cell precursor leukaemia line.
